{"source": "the supplement of paper PMC12230231", "note": "± gives the standard deviation of the averaged measurements. Restriction of a single-cycle SIVsab GFP reporter by TRIM5α v1-loop variants in CRFK cells. Human variants: read share among cells still uninfected after two challenges over input, higher = gained restriction. Rhesus variants: share among infected cells over input, higher = lost restriction. Reporter dose not given per row. No active / inactive call per row; the paper calls a change when both replicates lie above its controls (mean + 2 SD of stop or wild-type variants, or the top frameshift score). Residues outside the varied loop are taken from Swiss-Prot. The paper reads the human single-substitution scores as noise; they and the rhesus combinations repeat poorly (rank correlation 0.3 to 0.4), indel scores repeat only for the top variants, rhesus substitutions well (0.9).", "data": [{"test_system": "SIVsab (simian immunodeficiency virus of sabaeus monkeys), single-cycle GFP reporter, in CRFK cells", "assay": "enrichment among infected cells over input (fold); higher = weaker restriction", "settings": "library: human / rhesus combinations", "method": "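Pools of CRFK cells expressing variants of the TRIM5α v1 loop were challenged with the single-cycle reporter, sorted by GFP and sequenced; mean of two replicates.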", "values": [{"sequence": "MASGILLNVKEEVTCPICLELLTEPLSLHCGHSFCQACITANHKKSMLYKEGERSCPVCRISYQPENIQPNRHVANIVEKLREVKLSPEEGQKVDHCARHGEKLLLFCQEDSKVICWLCERSQEHRGHHTFLMEEVAQEYHVKLQTALEMLRQKQQEAEKLEADIREEKASWKIQIDYDKTNVSADFEQLREILDWEESNELQNLEKEEEDILKSLTKSETEMVQQTQYMRELISELEHRLQGSMMDLLQGVDGIIKRIENMTLKKPKTFHKNQRRVFRAPDLKGMLDMFRELTDARRYWVDVTLAPNNISHAVIAEDKRQVSSRNPQIMYQAPGTRFTFQSLVNFNYCTGVLGSQSITSGKHYWEVDVSKKSAWILGVCAGFQSDAMYNIEQNENYQPKYGYWVIGLQEGVKYSVFQDGSSHTPFAPFIVPLSVIICPDRVGVFVDYEACTVSFFNITNHGFLIYKFSQCSFSKPVFPYLNPRKCTVPMTLCSPSS [rhesus TRIM5α, 332-344 = QAPGTRFTFQSLV]", "enrichment": "1.31 ± 0.19"}, {"sequence": "MASGILLNVKEEVTCPICLELLTEPLSLHCGHSFCQACITANHKKSMLYKEGERSCPVCRISYQPENIQPNRHVANIVEKLREVKLSPEEGQKVDHCARHGEKLLLFCQEDSKVICWLCERSQEHRGHHTFLMEEVAQEYHVKLQTALEMLRQKQQEAEKLEADIREEKASWKIQIDYDKTNVSADFEQLREILDWEESNELQNLEKEEEDILKSLTKSETEMVQQTQYMRELISELEHRLQGSMMDLLQGVDGIIKRIENMTLKKPKTFHKNQRRVFRAPDLKGMLDMFRELTDARRYWVDVTLAPNNISHAVIAEDKRQVSSRNPQIMYQAPGTRYTFQSFVNFNYCTGVLGSQSITSGKHYWEVDVSKKSAWILGVCAGFQSDAMYNIEQNENYQPKYGYWVIGLQEGVKYSVFQDGSSHTPFAPFIVPLSVIICPDRVGVFVDYEACTVSFFNITNHGFLIYKFSQCSFSKPVFPYLNPRKCTVPMTLCSPSS [rhesus TRIM5α, 332-344 = QAPGTRYTFQSFV]", "enrichment": "1.42 ± 0.59"}, {"sequence": "MASGILLNVKEEVTCPICLELLTEPLSLHCGHSFCQACITANHKKSMLYKEGERSCPVCRISYQPENIQPNRHVANIVEKLREVKLSPEEGQKVDHCARHGEKLLLFCQEDSKVICWLCERSQEHRGHHTFLMEEVAQEYHVKLQTALEMLRQKQQEAEKLEADIREEKASWKIQIDYDKTNVSADFEQLREILDWEESNELQNLEKEEEDILKSLTKSETEMVQQTQYMRELISELEHRLQGSMMDLLQGVDGIIKRIENMTLKKPKTFHKNQRRVFRAPDLKGMLDMFRELTDARRYWVDVTLAPNNISHAVIAEDKRQVSSRNPQIMYGAPGTRFTFQTFVNFNYCTGVLGSQSITSGKHYWEVDVSKKSAWILGVCAGFQSDAMYNIEQNENYQPKYGYWVIGLQEGVKYSVFQDGSSHTPFAPFIVPLSVIICPDRVGVFVDYEACTVSFFNITNHGFLIYKFSQCSFSKPVFPYLNPRKCTVPMTLCSPSS [rhesus TRIM5α, 332-344 = GAPGTRFTFQTFV]", "enrichment": "0.912 ± 0.2"}, {"sequence": "MASGILLNVKEEVTCPICLELLTEPLSLHCGHSFCQACITANHKKSMLYKEGERSCPVCRISYQPENIQPNRHVANIVEKLREVKLSPEEGQKVDHCARHGEKLLLFCQEDSKVICWLCERSQEHRGHHTFLMEEVAQEYHVKLQTALEMLRQKQQEAEKLEADIREEKASWKIQIDYDKTNVSADFEQLREILDWEESNELQNLEKEEEDILKSLTKSETEMVQQTQYMRELISELEHRLQGSMMDLLQGVDGIIKRIENMTLKKPKTFHKNQRRVFRAPDLKGMLDMFRELTDARRYWVDVTLAPNNISHAVIAEDKRQVSSRNPQIMYGARGTLFTFPTFVNFNYCTGVLGSQSITSGKHYWEVDVSKKSAWILGVCAGFQSDAMYNIEQNENYQPKYGYWVIGLQEGVKYSVFQDGSSHTPFAPFIVPLSVIICPDRVGVFVDYEACTVSFFNITNHGFLIYKFSQCSFSKPVFPYLNPRKCTVPMTLCSPSS [rhesus TRIM5α, 332-344 = GARGTLFTFPTFV]", "enrichment": "0.446 ± 0.19"}, {"sequence": "MASGILLNVKEEVTCPICLELLTEPLSLHCGHSFCQACITANHKKSMLYKEGERSCPVCRISYQPENIQPNRHVANIVEKLREVKLSPEEGQKVDHCARHGEKLLLFCQEDSKVICWLCERSQEHRGHHTFLMEEVAQEYHVKLQTALEMLRQKQQEAEKLEADIREEKASWKIQIDYDKTNVSADFEQLREILDWEESNELQNLEKEEEDILKSLTKSETEMVQQTQYMRELISELEHRLQGSMMDLLQGVDGIIKRIENMTLKKPKTFHKNQRRVFRAPDLKGMLDMFRELTDARRYWVDVTLAPNNISHAVIAEDKRQVSSRNPQIMYQAPGTLFQSLVNFNYCTGVLGSQSITSGKHYWEVDVSKKSAWILGVCAGFQSDAMYNIEQNENYQPKYGYWVIGLQEGVKYSVFQDGSSHTPFAPFIVPLSVIICPDRVGVFVDYEACTVSFFNITNHGFLIYKFSQCSFSKPVFPYLNPRKCTVPMTLCSPSS [rhesus TRIM5α, 332-344 = QAPGTLFQSLV]", "enrichment": "7.91 ± 9.2"}, {"sequence": "MASGILLNVKEEVTCPICLELLTEPLSLHCGHSFCQACITANHKKSMLYKEGERSCPVCRISYQPENIQPNRHVANIVEKLREVKLSPEEGQKVDHCARHGEKLLLFCQEDSKVICWLCERSQEHRGHHTFLMEEVAQEYHVKLQTALEMLRQKQQEAEKLEADIREEKASWKIQIDYDKTNVSADFEQLREILDWEESNELQNLEKEEEDILKSLTKSETEMVQQTQYMRELISELEHRLQGSMMDLLQGVDGIIKRIENMTLKKPKTFHKNQRRVFRAPDLKGMLDMFRELTDARRYWVDVTLAPNNISHAVIAEDKRQVSSRNPQIMYQARGTLYTFQSLVNFNYCTGVLGSQSITSGKHYWEVDVSKKSAWILGVCAGFQSDAMYNIEQNENYQPKYGYWVIGLQEGVKYSVFQDGSSHTPFAPFIVPLSVIICPDRVGVFVDYEACTVSFFNITNHGFLIYKFSQCSFSKPVFPYLNPRKCTVPMTLCSPSS [rhesus TRIM5α, 332-344 = QARGTLYTFQSLV]", "enrichment": "2.25 ± 0.052"}, {"sequence": "MASGILLNVKEEVTCPICLELLTEPLSLHCGHSFCQACITANHKKSMLYKEGERSCPVCRISYQPENIQPNRHVANIVEKLREVKLSPEEGQKVDHCARHGEKLLLFCQEDSKVICWLCERSQEHRGHHTFLMEEVAQEYHVKLQTALEMLRQKQQEAEKLEADIREEKASWKIQIDYDKTNVSADFEQLREILDWEESNELQNLEKEEEDILKSLTKSETEMVQQTQYMRELISELEHRLQGSMMDLLQGVDGIIKRIENMTLKKPKTFHKNQRRVFRAPDLKGMLDMFRELTDARRYWVDVTLAPNNISHAVIAEDKRQVSSRNPQIMYGAPGTRFTFQSFTNFNYCTGVLGSQSITSGKHYWEVDVSKKSAWILGVCAGFQSDAMYNIEQNENYQPKYGYWVIGLQEGVKYSVFQDGSSHTPFAPFIVPLSVIICPDRVGVFVDYEACTVSFFNITNHGFLIYKFSQCSFSKPVFPYLNPRKCTVPMTLCSPSS [rhesus TRIM5α, 332-344 = GAPGTRFTFQSFT]", "enrichment": "0.747 ± 0.04"}, {"sequence": "MASGILLNVKEEVTCPICLELLTEPLSLHCGHSFCQACITANHKKSMLYKEGERSCPVCRISYQPENIQPNRHVANIVEKLREVKLSPEEGQKVDHCARHGEKLLLFCQEDSKVICWLCERSQEHRGHHTFLMEEVAQEYHVKLQTALEMLRQKQQEAEKLEADIREEKASWKIQIDYDKTNVSADFEQLREILDWEESNELQNLEKEEEDILKSLTKSETEMVQQTQYMRELISELEHRLQGSMMDLLQGVDGIIKRIENMTLKKPKTFHKNQRRVFRAPDLKGMLDMFRELTDARRYWVDVTLAPNNISHAVIAEDKRQVSSRNPQIMYGARGTLYTFQTFTNFNYCTGVLGSQSITSGKHYWEVDVSKKSAWILGVCAGFQSDAMYNIEQNENYQPKYGYWVIGLQEGVKYSVFQDGSSHTPFAPFIVPLSVIICPDRVGVFVDYEACTVSFFNITNHGFLIYKFSQCSFSKPVFPYLNPRKCTVPMTLCSPSS [rhesus TRIM5α, 332-344 = GARGTLYTFQTFT]", "enrichment": "1.48 ± 0.32"}, {"sequence": "MASGILLNVKEEVTCPICLELLTEPLSLHCGHSFCQACITANHKKSMLYKEGERSCPVCRISYQPENIQPNRHVANIVEKLREVKLSPEEGQKVDHCARHGEKLLLFCQEDSKVICWLCERSQEHRGHHTFLMEEVAQEYHVKLQTALEMLRQKQQEAEKLEADIREEKASWKIQIDYDKTNVSADFEQLREILDWEESNELQNLEKEEEDILKSLTKSETEMVQQTQYMRELISELEHRLQGSMMDLLQGVDGIIKRIENMTLKKPKTFHKNQRRVFRAPDLKGMLDMFRELTDARRYWVDVTLAPNNISHAVIAEDKRQVSSRNPQIMYQARGTRYTFPSLTNFNYCTGVLGSQSITSGKHYWEVDVSKKSAWILGVCAGFQSDAMYNIEQNENYQPKYGYWVIGLQEGVKYSVFQDGSSHTPFAPFIVPLSVIICPDRVGVFVDYEACTVSFFNITNHGFLIYKFSQCSFSKPVFPYLNPRKCTVPMTLCSPSS [rhesus TRIM5α, 332-344 = QARGTRYTFPSLT]", "enrichment": "0.903 ± 0.097"}, {"sequence": "MASGILLNVKEEVTCPICLELLTEPLSLHCGHSFCQACITANHKKSMLYKEGERSCPVCRISYQPENIQPNRHVANIVEKLREVKLSPEEGQKVDHCARHGEKLLLFCQEDSKVICWLCERSQEHRGHHTFLMEEVAQEYHVKLQTALEMLRQKQQEAEKLEADIREEKASWKIQIDYDKTNVSADFEQLREILDWEESNELQNLEKEEEDILKSLTKSETEMVQQTQYMRELISELEHRLQGSMMDLLQGVDGIIKRIENMTLKKPKTFHKNQRRVFRAPDLKGMLDMFRELTDARRYWVDVTLAPNNISHAVIAEDKRQVSSRNPQIMYQARGTLYTFQSLTNFNYCTGVLGSQSITSGKHYWEVDVSKKSAWILGVCAGFQSDAMYNIEQNENYQPKYGYWVIGLQEGVKYSVFQDGSSHTPFAPFIVPLSVIICPDRVGVFVDYEACTVSFFNITNHGFLIYKFSQCSFSKPVFPYLNPRKCTVPMTLCSPSS [rhesus TRIM5α, 332-344 = QARGTLYTFQSLT]", "enrichment": "1.26 ± 0.18"}, {"sequence": "MASGILLNVKEEVTCPICLELLTEPLSLHCGHSFCQACITANHKKSMLYKEGERSCPVCRISYQPENIQPNRHVANIVEKLREVKLSPEEGQKVDHCARHGEKLLLFCQEDSKVICWLCERSQEHRGHHTFLMEEVAQEYHVKLQTALEMLRQKQQEAEKLEADIREEKASWKIQIDYDKTNVSADFEQLREILDWEESNELQNLEKEEEDILKSLTKSETEMVQQTQYMRELISELEHRLQGSMMDLLQGVDGIIKRIENMTLKKPKTFHKNQRRVFRAPDLKGMLDMFRELTDARRYWVDVTLAPNNISHAVIAEDKRQVSSRNPQIMYQAPGTRFTFQSFTNFNYCTGVLGSQSITSGKHYWEVDVSKKSAWILGVCAGFQSDAMYNIEQNENYQPKYGYWVIGLQEGVKYSVFQDGSSHTPFAPFIVPLSVIICPDRVGVFVDYEACTVSFFNITNHGFLIYKFSQCSFSKPVFPYLNPRKCTVPMTLCSPSS [rhesus TRIM5α, 332-344 = QAPGTRFTFQSFT]", "enrichment": "1.12 ± 0.57"}, {"sequence": "MASGILLNVKEEVTCPICLELLTEPLSLHCGHSFCQACITANHKKSMLYKEGERSCPVCRISYQPENIQPNRHVANIVEKLREVKLSPEEGQKVDHCARHGEKLLLFCQEDSKVICWLCERSQEHRGHHTFLMEEVAQEYHVKLQTALEMLRQKQQEAEKLEADIREEKASWKIQIDYDKTNVSADFEQLREILDWEESNELQNLEKEEEDILKSLTKSETEMVQQTQYMRELISELEHRLQGSMMDLLQGVDGIIKRIENMTLKKPKTFHKNQRRVFRAPDLKGMLDMFRELTDARRYWVDVTLAPNNISHAVIAEDKRQVSSRNPQIMYGAPGTRFTFPTLTNFNYCTGVLGSQSITSGKHYWEVDVSKKSAWILGVCAGFQSDAMYNIEQNENYQPKYGYWVIGLQEGVKYSVFQDGSSHTPFAPFIVPLSVIICPDRVGVFVDYEACTVSFFNITNHGFLIYKFSQCSFSKPVFPYLNPRKCTVPMTLCSPSS [rhesus TRIM5α, 332-344 = GAPGTRFTFPTLT]", "enrichment": "2.2 ± 0.39"}]}]}
